Reference: article PMC6919601, “Identification of Plasmodium dipeptidyl aminopeptidase allosteric inhibitors by high throughput screening” (PLoS ONE, 2019)
Several values for one entry are separate records, joined by “and”; a condition that tells them apart may be missing. Equal entries are not always repeated. Out of some 110,000 compounds screened, about 230 (0.21%) showed an effect of 50% or more. This is one part of the list.

Target: DPAP1 (Plasmodium falciparum, UniProt Q8IIJ9)
Test: primary screen, percent inhibition; read by cleavage of a fluorogenic dipeptide substrate; higher = more effect of the substance
Set-up: species or system P. falciparum D10 trophozoite lysates; single well
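Also: 30 min substrate incubation versus DMSO and 10 µM JCP410 controls.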

Chain of DPAP1 (Q8IIJ9 whole entry, looked up): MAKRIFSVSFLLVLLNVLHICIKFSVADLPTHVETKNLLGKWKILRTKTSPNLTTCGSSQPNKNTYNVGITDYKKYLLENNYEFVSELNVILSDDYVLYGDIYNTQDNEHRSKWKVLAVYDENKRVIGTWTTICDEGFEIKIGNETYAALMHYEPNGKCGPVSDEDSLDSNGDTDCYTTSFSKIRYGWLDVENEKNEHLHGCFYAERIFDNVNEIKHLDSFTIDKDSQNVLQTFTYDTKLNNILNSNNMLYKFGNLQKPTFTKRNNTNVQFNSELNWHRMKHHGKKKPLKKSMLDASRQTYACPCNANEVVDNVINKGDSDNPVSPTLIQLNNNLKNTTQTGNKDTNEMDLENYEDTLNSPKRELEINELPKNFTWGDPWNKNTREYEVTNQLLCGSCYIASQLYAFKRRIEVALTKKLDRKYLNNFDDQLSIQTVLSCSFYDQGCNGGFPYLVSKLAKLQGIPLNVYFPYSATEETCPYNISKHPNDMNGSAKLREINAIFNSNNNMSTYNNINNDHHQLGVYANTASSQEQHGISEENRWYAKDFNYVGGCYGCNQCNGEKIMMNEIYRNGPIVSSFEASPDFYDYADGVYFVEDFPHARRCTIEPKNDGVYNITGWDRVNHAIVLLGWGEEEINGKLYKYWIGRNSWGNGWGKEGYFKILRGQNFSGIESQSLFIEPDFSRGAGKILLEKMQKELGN

SMILES	% Inhibition @ 10 uM
CC1(C)C=Cc2cc3ccccc3cc2O1	-4.76%
N#CC(NC(=O)[C@H](CS(=O)(=O)Cc1ccccc1OC(F)F)NC(=O)N1CCOCC1)c1cccs1 (some centres unmarked)	-4.82%
CC(Oc1ccccc1Cl)C(=O)Nc1ccccc1C(N)=O (centres unmarked)	4.31% and -1.44%
Cc1ccc(C)n1-c1ccc(CC(=O)O)cc1	-2.26%
COc1cccc(NC(=O)CN(c2cc(Cl)ccc2C)S(C)(=O)=O)c1	-5.67%
Cc1ccc(C(C#N)NC(=O)C(CC(=O)N2CCOCC2)CS(=O)(=O)Cc2ccccc2)o1 (centres unmarked)	-3.49%
O=C(CSc1nc2ccccc2s1)Nc1ccc(F)c(F)c1	1.8%
c1ccc(CNc2c3c(nc4ccccc24)CCC3)cc1	2.44%
CC(=O)c1ccc(NC(=O)Nc2sc(NS(=O)(=O)c3ccccc3)nc2C)cc1	-3.78%
CCN1CCCC1CNC(=O)c1ccc2c(c1)sc1nc(-c3cccc(OC)c3)cn12 (centres unmarked)	3.24%
O=[N+]([O-])c1ccc(CN2CCN(c3cccc(Cl)c3)CC2)cc1	4.67%
CCOc1ccc(C2CC(=O)n3nc(-c4cccc(C)c4)nc3S2)cc1 (centres unmarked)	-2.75%
CC(C)C(C(=O)Nc1ccc(S(=O)(=O)Nc2nccs2)cc1)N1C(=O)c2ccccc2C1=O (centres unmarked)	10%
O=C(c1ccccc1[N+](=O)[O-])N1CCN(c2ccccc2)CC1	3.95%
OCCN1CCN(Cc2cccc(F)c2)CC1	-1.62%
COc1cccc(N2CCN(C3CC(=O)N(c4cccc(OC)c4)C3=O)CC2)c1 (centres unmarked)	-1.22%
COc1ccc(CN2CCN(C(C)C)CC2)c(OC)c1	3.06%
COc1cc2c(cc1OC)C(Cc1ccccc1)=NC(C)(C)C2	-4.18%
OCC(O)Cn1c2ccc(Cl)cc2c2cc(Cl)ccc21 (centres unmarked)	-1.97%
O=C1c2ccccc2-c2c1cccc2C(=O)N(CCO)CCO	0.291%
CC1=C(c2ccc(C)cc2)S(=O)(=O)N=C1N1CCCCC1C (centres unmarked)	5.42%
Brc1cccc(CN2CCOCC2)c1	-7.93%
CCc1ccc(C2CC(=O)NC3=C2C(=O)CC(c2ccccc2Cl)C3)cc1 (centres unmarked)	-4.16%
Cc1cccc(-n2nnc(C(=O)NCc3ccccc3Cl)c2N)c1	8%
CCC(Oc1ccccc1)C(=O)Nc1nn2c(C)nnc2s1 (centres unmarked)	0.522%
Cc1ccc(NC(=O)c2c(C)nn(-c3ccccc3)c2Cl)cc1	-2.53%
Cn1cnc2c(=O)oc3ccccc3c21	-2.78%
C=C(C)CSc1nc2c(C)cccc2[nH]1	6.89%
COc1cccc(CNC(=O)c2cnn(-c3ccccc3)c2-n2cccc2)c1OC	3.29%
